# The shares of active, inactive and inconclusive entries below differ from those in the screen. For some assays here: Potencies of inconclusive entries are left out as doubtful fits. Active and inactive are the calls of the source. Unless noted, calls come from the whole dose curve; as a rule, active = well fitted curve in the direction sought with a large enough effect; inconclusive = small, poorly fitted or top-dose-only effect, or another doubt; inactive = no such curve, though single readings can be large; an effect the other way counts as inactive or inconclusive.
# Experiments:
# [1] = AP1 Signaling Pathway (AID 357; active = well fitted curve in either direction with a large enough effect, not every such curve was filed as active; inconclusive = small, poorly fitted or top-dose-only effect, or another doubt; note: top concentration of the series differs between compounds; % is set by controls: 0 for no effect and ±100 for the full control effect); details: ME-180 AP-1-bla reporter, EGF-induced, beta-lactamase ratio, 5 h; at 7.69 µM (top of the series) unless noted
# In short: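 AP-1-bla ME-180 cells with beta-lactamase reporter under AP-1 response element, stimulated with EC50 EGF; compounds titrated, 5 hours at 37 degrees Celsius. CCF4 read at 460/530 nm ratio; positive and negative modulators judged by AC50.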
# [2] = NFAT Signaling Pathway (AID 444; active = well fitted curve in either direction with a large enough effect, not every such curve was filed as active; inconclusive = small, poorly fitted or top-dose-only effect, or another doubt;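 note: carbachol stimulus at about its EC50 of 1 µM final; % is set by controls: 0 for no effect and ±100 for the full control effect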); details: Jurkat NFAT-bla M1, carbachol, beta-lactamase ratio, 5 h; at 7.69 µM (top of the series) unless noted
# In short: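 Jurkat cells with NFAT-driven β-lactamase reporter and co-expressed M1 receptor, stimulated with carbachol (final 1 uM, ~EC50), compound titration, 5 h at 37 °C. CCF4 loaded 1 h at RT; 460/530 nm ratio gave %activity and AC50.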
# [3] = biological target: Cytochrome P450 2C9 (Homo sapiens) (UniProt P11712); assay: qHTS Assay for Inhibitors and Substrates of Cytochrome P450 2C9 (AID 883); note: potency is the fitted concentration of half-maximal effect; nearly all actives have a fitted effect of over 60% in size
# In short: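 Human CYP2C9 (10nM) with Luciferin-H at 100uM (its KM) in 25mM KPO4; compound preincubated 10 min at 37C, then NADPH regeneration for 60 min at 37C. Luciferin read by luminescence after detection reagent; normalized to 57uM sulphaphenazole as full inhibition.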
# [4] = qHTS for Inhibitors of WRN Helicase: Thiazole Orange DNA Binding Counterscreen (AID 720499);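 note: drop in dye fluorescence marks compound binding to DNA; potency is the fitted concentration of half-maximal effect; nearly all actives have a fitted effect of over 60% in size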
# In short: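 Thiazole orange displacement counterscreen: compounds added to 50 nM unlabeled DNA with 100 nM ThO. Fluorescence (ex 480, em 530 nm) read after 15 min at room temperature; activity flags nonspecific DNA binding.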
# [5] = biological target: Rap guanine nucleotide exchange factor 3 (Homo sapiens) (UniProt O95398); assay: Confirmatory qHTS for antagonist of cAMP-regulated guanine nucleotide exchange factor 3 (EPAC1) (AID 1645880); details: EPAC1 Rap1B-BODIPY-GDP exchange, fluorescence; activity, negative = inhibition: at 115 µM (top of the series); note: nearly all actives have a fitted effect of over 55% in size; note: potency is the fitted concentration of half-maximal effect;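 for activity, negative = inhibition: plate controls were DMSO only for no effect and full effect of the ATA control for full effect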
# In short: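 Nucleotide exchange uses 100 nM EPAC1, 250 nM RAP1B-BODIPY-GDP and 50 uM GDP, with compounds in a concentration-titration series. After 5 min at room temperature, fluorescence (480 nm ex/540 nm em) is read every 5 min for 30 min. Data are normalized to control ATA and DMSO.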
# [6] = biological target: Rap guanine nucleotide exchange factor 3 (Homo sapiens) (UniProt O95398); assay: Counterscreen qHTS for agonist of cAMP-regulated guanine nucleotide exchange factor 3 (EPAC1) (AID 1645889); details: EPAC1 Rap1B-BODIPY-GDP exchange, fluorescence; activation: at 154 µM (top of the series) unless noted; note: nearly all actives have a fitted effect of over 40% in size; note: potency is the fitted concentration of half-maximal effect; for activation: % of control where 0% means no effect
# In short: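 Rap1B–BODIPY-GDP (250 nM) with 50 uM GDP; compounds pin-transferred to 9.74 nM–152 uM final (activator) or from 7.32 nM upwards (inhibitor). Fluorescence Ex/Em 480/540 nm read at 5 and 30 min, then after adding cAMP or buffer, at room temperature.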
# [7] = biological target: Tyrosyl-DNA phosphodiesterase 1 (Homo sapiens) (UniProt Q9NUW8); assay: Confirmation Assay for Inhibitors of Tyrosyl-DNA Phosphodiesterase (TDP1) (AID 489007); details: recombinant human TDP1 enzymatic activity, dose-response; note: potency is the fitted concentration of half-maximal effect; nearly all actives have a fitted effect of over 40% in size
# In short: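 Tdp1 1 nM + cpd, 15 min RT; add biotin/phosphotyrosine-FITC oligo 15 nM, 5 min RT; add AS donor/acceptor beads 10 ug/ml, 10 min RT; read AlphaScreen. No-enzyme wells = max signal.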
# [8] = biological target: DNA repair nuclease/redox regulator APEX1 (Homo sapiens) (UniProt P27695); assay: Confirmation qHTS Assay for Inhibitors of the Human Apurinic/apyrimidinic Endonuclease 1 (APE1) (AID 2572); note: potency is the fitted concentration of half-maximal effect; nearly all actives have a fitted effect of over 30% in size
# In short: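 Enzyme preincubated 15 min at room temperature with compound; reaction started with 50 nM final double-stranded THF abasic-site substrate (5'-TAMRA, 3'-BHQ-2). Fluorescence read kinetically (525/598 nm); third-minus-first read difference gives reaction progress.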
# [9] = qHTS Assay for Identification of Small Molecule Agonists for Hypoxia Response Element Signaling Pathway (AID 914; active = well fitted activation curve with a large enough effect in the signal ratio, with a control signal flat, not every such curve was filed as active; inconclusive = small, poorly fitted or top-dose-only effect, or effect the other way, or a change in a side signal; the % refers to the signal ratio; note: top concentration of the series differs between compounds; % of control where 0% means no effect); details: ME-180 (cervical carcinoma) HRE-bla reporter, beta-lactamase ratio, CoCl2, 17 h; activation: stronger effect = higher value
# In short: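 HRE-bla ME-180 assay for agonist-like enhancement of an EC50 CoCl2 stimulus: 17 h at 37 degrees Celsius, CCF4 for 2.5 h, ratiometric 460/530 nm signal converted to %Activity and fitted to AC50.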
# [10] = biological target: Lethal(3)malignant brain tumor-like protein 1 (Homo sapiens) (UniProt Q9Y468); assay: qHTS Assay for the Inhibitors of L3MBTL1: Hit Validation (AID 540279); details: L3MBTL1 methyl-lysine binding inhibition, biochemical qHTS; note: potency is the fitted concentration of half-maximal effect; nearly all actives have a fitted effect of over 70% in size
# In short: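 L3MBTL1 (50 nM final) preformed 30 min with biotinylated H3(1-15)K9me1 peptide (75 nM), then compound 30 min at room temperature. Streptavidin donor and nickel chelate acceptor AlphaScreen beads (10 ug/mL each final) added for 30 min before read.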
# [11] = biological target: DNA polymerase iota (Homo sapiens) (UniProt Q9UNA4); assay: qHTS for Inhibitors of Polymerase Iota: Confirmatory Assay for Cherry-picked Compounds (AID 720496); details: Pol iota primer extension, TAMRA/BHQ fluorescence; note: potency is the fitted concentration of half-maximal effect
# In short: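 Step 1: 10 nM Pol iota with compound, 15 min, room temperature. Step 2: 50 nM final quenched DNA substrate added. Step 3: fluorescence (ex 525, em 598 nm) read at 0 and after 10 min.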
# [12] = biological target: 3',5'-cyclic-AMP phosphodiesterase 4B (Homo sapiens) (UniProt Q07343); assay: qHTS Assay for Inhibitors of PDE-IV (AID 607; active = well fitted activation curve with a large enough effect in the main read-out, with a control signal flat, not every such curve was filed as active; inconclusive = small, poorly fitted or top-dose-only effect, or effect the other way, or a change in a side signal; note: % of control where 0% means no effect); details: HEK293 ACTOne CNG channel cells, membrane potential fluorescence; activation (PDE inhibition): at 22.9 µM (top of the series)
# In short: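 Cell-based read-out of cAMP via a modified cyclic nucleotide-gated channel and membrane potential dye (535/590 nm) in HEK293 cells expressing PDE4 endogenously. Compounds tested up to 22.9 uM final; 100 uM RO 20-1724 reference.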
# [13] = biological target: Cytochrome P450 3A4 (Homo sapiens) (UniProt P08684); assay: qHTS Assay for Inhibitors and Substrates of Cytochrome P450 3A4 (AID 884); details: recombinant CYP3A4, Luciferin-PPXE luminescence; activity change, negative = inhibition: at 57.1 µM (top of the series); note: potency is the fitted concentration of half-maximal effect; nearly all actives have a fitted effect of over 50% in size
# In short: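 20 nM human CYP3A4 with 25 uM Luciferin-PPXE (at KM) in 200 mM KPO4, preincubated 10 min with compound; NADPH regeneration started a 60 min RT reaction. Luciferin detected by luminescence, normalized to 57 uM ketoconazole as full inhibition.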
# [14] = biological target: Cytochrome P450 2D6 (Homo sapiens) (UniProt P10635); assay: qHTS Assay for Inhibitors and Substrates of Cytochrome P450 2D6 (AID 891);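 note: luciferin methyl ether substrate demethylated by CYP2D6 with NADPH regeneration; potency is the fitted concentration of half-maximal effect; nearly all actives have a fitted effect of over 60% in size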
# In short: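 Human CYP2D6 (5 nM) with 30 uM Luciferin-ME EGE (at Km) in 100 mM KPO4, compound preincubated 10 min, then NADPH regeneration system for 60 min at room temperature. Luciferin read by luminescence; normalized to 1.43 uM quinidine.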
# Tags give direction and shape of the fitted curve.
# Sequence of UniProt O95398 (O95398 whole entry, looked up): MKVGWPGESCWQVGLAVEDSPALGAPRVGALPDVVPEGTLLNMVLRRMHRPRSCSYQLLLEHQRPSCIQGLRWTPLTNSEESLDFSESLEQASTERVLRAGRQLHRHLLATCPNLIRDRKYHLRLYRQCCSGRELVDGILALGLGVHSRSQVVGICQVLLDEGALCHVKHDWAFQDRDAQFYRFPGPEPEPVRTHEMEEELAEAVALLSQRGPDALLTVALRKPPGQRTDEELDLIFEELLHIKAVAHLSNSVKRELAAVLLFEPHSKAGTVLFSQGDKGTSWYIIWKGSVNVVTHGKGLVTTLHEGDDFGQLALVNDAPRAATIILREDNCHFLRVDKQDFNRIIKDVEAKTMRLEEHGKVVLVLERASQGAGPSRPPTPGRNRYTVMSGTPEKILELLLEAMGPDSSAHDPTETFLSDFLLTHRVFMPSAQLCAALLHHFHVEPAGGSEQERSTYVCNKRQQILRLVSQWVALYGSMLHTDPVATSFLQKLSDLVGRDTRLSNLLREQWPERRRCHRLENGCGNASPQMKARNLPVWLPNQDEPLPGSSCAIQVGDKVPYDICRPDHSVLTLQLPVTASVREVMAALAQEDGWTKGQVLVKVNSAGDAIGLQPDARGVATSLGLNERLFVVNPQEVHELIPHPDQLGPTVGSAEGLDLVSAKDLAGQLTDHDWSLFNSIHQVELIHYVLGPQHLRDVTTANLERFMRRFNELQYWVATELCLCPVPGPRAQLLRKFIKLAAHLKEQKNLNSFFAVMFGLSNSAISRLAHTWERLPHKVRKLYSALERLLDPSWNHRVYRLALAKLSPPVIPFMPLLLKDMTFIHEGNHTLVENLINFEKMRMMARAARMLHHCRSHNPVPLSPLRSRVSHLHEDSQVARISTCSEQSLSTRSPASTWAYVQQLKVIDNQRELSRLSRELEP
# Sequence of UniProt P11712 (P11712 whole entry, looked up): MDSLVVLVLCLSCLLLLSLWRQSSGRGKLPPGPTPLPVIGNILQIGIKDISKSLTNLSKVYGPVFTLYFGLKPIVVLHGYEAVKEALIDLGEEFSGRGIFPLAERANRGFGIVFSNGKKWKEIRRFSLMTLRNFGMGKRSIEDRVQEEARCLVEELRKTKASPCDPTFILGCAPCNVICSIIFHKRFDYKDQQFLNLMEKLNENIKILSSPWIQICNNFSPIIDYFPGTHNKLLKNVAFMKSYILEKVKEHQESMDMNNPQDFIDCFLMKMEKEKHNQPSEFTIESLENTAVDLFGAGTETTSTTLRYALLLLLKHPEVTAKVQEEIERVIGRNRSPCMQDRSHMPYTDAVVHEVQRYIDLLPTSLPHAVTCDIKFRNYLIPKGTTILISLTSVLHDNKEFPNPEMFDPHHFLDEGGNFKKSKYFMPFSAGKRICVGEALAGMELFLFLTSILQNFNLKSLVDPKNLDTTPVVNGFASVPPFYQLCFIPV
# Sequence of UniProt Q9UNA4 (Q9UNA4 whole entry, looked up): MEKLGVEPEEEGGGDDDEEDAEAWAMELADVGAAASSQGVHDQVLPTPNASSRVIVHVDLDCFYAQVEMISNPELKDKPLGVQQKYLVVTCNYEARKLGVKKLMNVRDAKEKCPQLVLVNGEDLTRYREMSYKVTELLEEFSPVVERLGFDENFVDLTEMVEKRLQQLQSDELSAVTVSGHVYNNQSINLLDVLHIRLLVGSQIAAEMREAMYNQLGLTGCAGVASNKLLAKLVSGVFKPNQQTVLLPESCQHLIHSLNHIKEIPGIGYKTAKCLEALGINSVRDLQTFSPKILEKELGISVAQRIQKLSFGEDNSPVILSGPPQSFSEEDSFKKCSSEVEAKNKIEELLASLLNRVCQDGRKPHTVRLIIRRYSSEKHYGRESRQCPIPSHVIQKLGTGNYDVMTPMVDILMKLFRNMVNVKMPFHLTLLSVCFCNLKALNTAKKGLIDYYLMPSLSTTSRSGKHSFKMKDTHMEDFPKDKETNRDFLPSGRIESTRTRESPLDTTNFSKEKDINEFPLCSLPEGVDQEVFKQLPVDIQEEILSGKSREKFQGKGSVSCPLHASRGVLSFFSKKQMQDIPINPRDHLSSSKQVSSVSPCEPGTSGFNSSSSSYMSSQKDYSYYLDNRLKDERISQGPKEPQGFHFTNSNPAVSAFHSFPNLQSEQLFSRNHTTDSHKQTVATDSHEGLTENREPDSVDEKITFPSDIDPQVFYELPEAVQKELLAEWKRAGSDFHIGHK
# Sequence of UniProt P08684 (P08684 whole entry, looked up): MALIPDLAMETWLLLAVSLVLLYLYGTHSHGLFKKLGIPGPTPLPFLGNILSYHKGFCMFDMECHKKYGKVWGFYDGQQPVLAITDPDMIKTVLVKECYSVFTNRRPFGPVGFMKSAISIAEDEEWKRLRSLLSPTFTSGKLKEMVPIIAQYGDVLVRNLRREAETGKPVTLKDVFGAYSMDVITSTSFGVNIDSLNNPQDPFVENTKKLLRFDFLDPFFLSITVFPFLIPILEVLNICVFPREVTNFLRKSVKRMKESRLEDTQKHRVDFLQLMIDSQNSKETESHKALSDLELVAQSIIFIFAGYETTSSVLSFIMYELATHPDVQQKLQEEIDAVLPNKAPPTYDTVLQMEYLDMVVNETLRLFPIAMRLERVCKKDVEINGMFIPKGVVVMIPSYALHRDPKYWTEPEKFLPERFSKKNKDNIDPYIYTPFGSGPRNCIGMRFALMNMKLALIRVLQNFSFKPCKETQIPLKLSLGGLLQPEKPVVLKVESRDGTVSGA
# Sequence of UniProt Q9NUW8 (Q9NUW8 whole entry, looked up): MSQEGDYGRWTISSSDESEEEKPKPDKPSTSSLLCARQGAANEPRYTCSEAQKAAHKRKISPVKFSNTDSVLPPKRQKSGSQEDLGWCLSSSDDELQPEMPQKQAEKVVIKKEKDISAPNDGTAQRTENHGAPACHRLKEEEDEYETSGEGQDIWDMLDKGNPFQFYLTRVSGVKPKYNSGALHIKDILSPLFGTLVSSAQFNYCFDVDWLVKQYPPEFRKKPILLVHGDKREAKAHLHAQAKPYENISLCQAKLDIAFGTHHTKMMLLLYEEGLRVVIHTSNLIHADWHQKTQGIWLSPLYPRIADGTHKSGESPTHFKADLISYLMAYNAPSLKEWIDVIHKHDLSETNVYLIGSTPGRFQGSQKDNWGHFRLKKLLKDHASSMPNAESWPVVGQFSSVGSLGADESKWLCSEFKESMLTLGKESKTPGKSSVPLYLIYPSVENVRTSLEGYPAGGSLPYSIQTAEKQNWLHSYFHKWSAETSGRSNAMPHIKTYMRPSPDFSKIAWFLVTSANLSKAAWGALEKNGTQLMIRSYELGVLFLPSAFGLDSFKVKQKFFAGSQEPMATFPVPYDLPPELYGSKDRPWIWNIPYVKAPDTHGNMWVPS
# Sequence of UniProt P10635 (P10635 whole entry, looked up): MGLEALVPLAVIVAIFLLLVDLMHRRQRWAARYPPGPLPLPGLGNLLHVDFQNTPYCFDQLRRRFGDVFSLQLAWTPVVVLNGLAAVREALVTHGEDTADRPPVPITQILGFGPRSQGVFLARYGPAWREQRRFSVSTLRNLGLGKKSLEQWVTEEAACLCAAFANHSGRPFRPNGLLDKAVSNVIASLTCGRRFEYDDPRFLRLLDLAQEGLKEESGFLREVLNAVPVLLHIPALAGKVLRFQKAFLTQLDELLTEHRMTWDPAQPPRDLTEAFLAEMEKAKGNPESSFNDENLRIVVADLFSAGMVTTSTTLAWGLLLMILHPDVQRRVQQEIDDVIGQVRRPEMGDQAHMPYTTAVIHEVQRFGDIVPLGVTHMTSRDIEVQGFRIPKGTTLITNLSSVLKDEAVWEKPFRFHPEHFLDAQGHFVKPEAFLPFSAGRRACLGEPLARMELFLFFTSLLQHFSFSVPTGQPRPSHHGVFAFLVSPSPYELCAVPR
# Sequence of UniProt Q07343 (Q07343 whole entry, looked up): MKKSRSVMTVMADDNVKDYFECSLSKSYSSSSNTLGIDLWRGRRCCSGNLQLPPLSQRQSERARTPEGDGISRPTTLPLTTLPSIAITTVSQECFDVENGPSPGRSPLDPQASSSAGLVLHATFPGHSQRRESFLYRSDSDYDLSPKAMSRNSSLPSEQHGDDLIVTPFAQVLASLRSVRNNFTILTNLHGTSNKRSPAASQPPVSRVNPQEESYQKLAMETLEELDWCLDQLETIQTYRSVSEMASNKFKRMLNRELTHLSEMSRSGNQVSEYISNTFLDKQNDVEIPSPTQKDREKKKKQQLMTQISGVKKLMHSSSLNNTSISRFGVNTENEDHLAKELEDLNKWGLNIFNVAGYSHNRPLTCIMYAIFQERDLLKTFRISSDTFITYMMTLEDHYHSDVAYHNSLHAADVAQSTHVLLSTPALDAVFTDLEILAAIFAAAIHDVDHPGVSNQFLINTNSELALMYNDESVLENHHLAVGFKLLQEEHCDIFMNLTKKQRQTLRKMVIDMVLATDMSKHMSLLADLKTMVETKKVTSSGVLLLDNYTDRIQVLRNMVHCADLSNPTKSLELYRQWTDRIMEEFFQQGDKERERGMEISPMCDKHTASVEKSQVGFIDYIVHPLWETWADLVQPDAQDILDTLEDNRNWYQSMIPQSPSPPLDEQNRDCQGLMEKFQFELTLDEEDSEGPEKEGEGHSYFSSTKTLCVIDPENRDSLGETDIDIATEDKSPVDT
# Sequence of UniProt P27695 (P27695 whole entry, looked up): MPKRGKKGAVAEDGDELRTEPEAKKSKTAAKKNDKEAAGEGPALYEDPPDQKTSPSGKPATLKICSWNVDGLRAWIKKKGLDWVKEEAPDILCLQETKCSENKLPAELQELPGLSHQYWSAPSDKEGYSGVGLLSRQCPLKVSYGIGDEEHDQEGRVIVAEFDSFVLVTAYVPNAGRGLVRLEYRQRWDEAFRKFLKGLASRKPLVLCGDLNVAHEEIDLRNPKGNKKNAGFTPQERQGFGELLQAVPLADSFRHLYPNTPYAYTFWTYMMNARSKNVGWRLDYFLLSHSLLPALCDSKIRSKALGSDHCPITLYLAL
smiles,measurement,setting,value
O=C1C=C(NCCc2cc(Br)c(O)c(Br)c2)C(=O)c2ncccc21,"activity change, negative = inhibition",[1],inconclusive: 34.4% [activator]
same,"activity change, negative = inhibition",[2],inconclusive: -79.1% [inhibitor]
same,Potency,[3],active: 1.58 µM
same,Potency,[4],"inconclusive [inhibitor, partial curve]"
same,Potency,[5],"inconclusive [inhibitor, full curve]"
same,activation,[6],inactive: 14.9% [at 30.8 µM]
CC1=C(C(=O)Nc2ccccc2)C(c2ccc[nH]2)n2ncnc2N1 (centres undefined),Potency,[7],"inconclusive [inhibitor, partial curve]"
same,Potency,[4],"inconclusive [inhibitor, partial curve]"
same,Potency,[5],"inconclusive [inhibitor, partial curve]"
same,Potency,[6],"inconclusive [activator, partial curve, poor fit]"
Cc1ccc(N2C(=O)c3ccccc3C2C(=O)c2ccc(O)cc2O)cc1 (centres undefined),Potency,[8],"inconclusive [inhibitor, partial curve, poor fit]"
same,Potency,[5],inactive
same,activation,[6],inconclusive: 31.1% [activator]
COCCn1c(N)c(C(=O)NCC2CCCO2)c2nc3ccccc3nc21 (centres undefined),"activity change, negative = inhibition",[2],inactive: 8.7% [at 17.2 µM]
same,activation,[9],inconclusive: 28.9%
same,Potency,[5],inactive
same,Potency,[6],"inconclusive [activator, full curve, poor fit]"
CCc1nc2sc3ccccc3c(=O)c2c(=O)n1Cc1ccco1,Potency,[10],active: 16.8 µM
same,Potency,[11],"inconclusive [inhibitor, partial curve]"
same,Potency,[5],"inconclusive [inhibitor, full curve, poor fit]"
same,Potency,[6],"inconclusive [activator, full curve, poor fit]"
Nc1nc(N)c(-c2cccc(C(F)(F)F)c2)c(Cc2cccc(C(F)(F)F)c2)n1,"activity change, negative = inhibition",[2],inconclusive: 63.8% [activator]
same,Potency,[12],inactive
same,Potency,[3],"inconclusive [inhibitor, single point]"
same,Potency,[13],"inconclusive [inhibitor, partial curve]"
same,Potency,[14],"inconclusive [inhibitor, partial curve]"
same,activation,[9],inconclusive: 32%
same,Potency,[5],"inconclusive [inhibitor, full curve]"
same,Potency,[6],inactive
